Assay [1] has as its target T1, Eg5 (a kinesin-5) motor domain (Homo sapiens, UniProt P52732).
T1 construct: When the Eg5 (a kinesin-5) motor domain was mixed in a 1:1 stoichiometric ratio with HtubA/B
T1 sequence (P52732 18-359 limits assumed): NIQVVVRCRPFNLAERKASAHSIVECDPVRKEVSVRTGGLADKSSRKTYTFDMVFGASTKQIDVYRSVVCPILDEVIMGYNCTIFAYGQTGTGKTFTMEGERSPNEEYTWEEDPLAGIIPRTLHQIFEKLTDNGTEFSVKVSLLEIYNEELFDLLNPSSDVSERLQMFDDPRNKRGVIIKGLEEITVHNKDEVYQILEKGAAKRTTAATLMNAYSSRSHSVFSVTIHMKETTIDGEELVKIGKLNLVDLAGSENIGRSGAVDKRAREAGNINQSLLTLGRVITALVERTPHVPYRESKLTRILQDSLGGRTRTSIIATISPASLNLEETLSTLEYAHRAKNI
The assay is described as follows: Stopped-flow MANT-ATP binding kinetics of kinesin. It counts as biochemical. Particulars: fluorescent MANT-ATP, Eg5 in presence of the tubulin preparation. An excerpt: The Eg5-HtubA/B complex was rapidly mixed with fluorescent MANT-ATP in a stopped-flow instrument. This experiment was designed to monitor the kinetics of ATP binding to kinesin in the absence and presence of HtubA/B. In the absence of HtubA/B, the rate of ATP binding was 0.5-1 sec−1 and in the presence of eukaryotic microtubules, the rate of ATP binding was 25-30 sec−1. When the kinesin-HtubA/B complex was mixed with MANT-ATP, a rate of ATP binding of 265±14 sec−1 was observed.

Assay [2] deals with T1, Eg5 (a kinesin-5) motor domain. The assay is described as follows: Gel filtration chromatography of Eg5 motor domain mixed 1:1 with HtubA/B. It counts as binding. Background: SEC sorts molecules by how far they enter the pores of the column.

B1: HtubA/B: Hybrid bacterial-bovine tubulin heterodimer of HtubA (thioredoxin- and His-tagged) and HtubB (His-tagged) (protein)
chain 1: MKVNNTIVVSIGQAGNQIAASFWKTVCLEHGIDPLTGQTAPGVAPRGNWSSFFSKLGESSSGSYVPRAIMVDLEPSVIDNVKATSGSLFNPANLISRTEGAGGNFAVGYLGAGREVLPEVMSRLDYEIDKCDNVGGIIVLHAIGGGTGSGFGALLISSLREEYPDIPVLSCAVLPSPQVSSVVTEPYNTVFALHQLVENADACLIFDNEALFDLAHRKWNIESPTVDDLNLLITEALAGITASMRFSGFLTVEITLRELLTNLVPQPRLHFLMCAFAPLTPPDRSKFEELGIEEMIKSLFDNGSVFAACSPMEGRFLSTAVLYRGIMEDKPLADAALAAMREKLPLTEWIPTAFKIGYVEQPGISHRKSMVLLANNTEIARVLDRICHNFDKLWQRKAFANWYLNEGMDEMEITELRSNANDLVSEYQQAQDSGAKAKVQDSAGDTGMRAAAAGVSDDARGSMSLRDLVDRRR
chain 2: VREILSIHVGQCGNQIADSFWRLALREHGLTEAGTLKEGSNAAANSNMEVFFHKVRDGKYVPRAVLVDLEPGVIARIEGGDMSQLFDESSIVRKIPGAANNWARGHYTEGEKVIDQIMNVIDSAVEKTKGLQGFLMTHSIGGGSGSGLGSLILERLRQAYPKKRIFTFSVVPSPLISDSAVEPYNAILTLHTILENADGAVLLDNEALFRIAKAKLNRSPNYMDLNNIIALIVSSVTASLRFPGKLNTDLSEFVTNLVPYPRGHFLTASFAPMRGAGQEGQVRTNFPDLARETFAQDNFTAAIDWQQGVYLAASALFRGDVKAKDVDENMATIRKSLNYASYMPASGGLKLGYAETAPEGFASSGLALVNHTGIAAVFERLIAQFDIMYAKRAYTHWYVGEGVEEGEMSEAREDIAALEKDYREVG
modifications: left off: large carriers; small tags and cut ends
B1: the “rate of ATP binding to kinesin” value in assay [1] came out at 265 ± 14 s⁻¹. Further, in assay [2] (1:1 stoichiometric ratio, absence of additional salt and ATP), the “kinesin binding to HtubA/B dimer (elution of complex)” value is “eluted from the column at an apparent molecular weight of a trimeric complex”. For the same molecule, the “kinesin binding to HtubA/B complex after adding salt and ATP” value in assay [2] (additional salt and ATP added to Eg5-HtubA/B complex) is “dissociated”.

These data come from patent US8741307B2, “Hybrid prokaryotic-eukaryotic tubulins and use thereof” (Trustees of Dartmouth College, priority 2009, dated 2014).
